Test results reported in PubChem BioAssay AID624417 (National Center for Advancing Translational Sciences (NCATS), 2012).
Screen size: about 410,000 compounds; about 6,400 (1.6%) were called active. Inconclusive means that the source gave no clear call. Such entries were picked first, then a sample of the others. The call rests on the fitted dose curve; in most records, active means well fitted inhibition curve with a large enough effect; inconclusive means small, poorly fitted or top-dose-only effect; inactive means no such curve, though single readings can be large or run the other way. Potencies of inconclusive entries are doubtful fits and often do not repeat.

target: Glucagon-like peptide 1 receptor (Homo sapiens) (UniProt P43220); assay: qHTS of GLP-1 Receptor Inverse Agonists (Inhibition Mode); conditions: HEK293 GLP-1R CRE-luciferase, luminescence, 24 h, GLP-1R form is constitutively active; series mostly up to 38.3 µM; further: nearly all actives have a fitted effect of over 55% in size
Summary of the method: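 GLP-1R inverse agonism mode: basal reporter luminescence in engineered HEK293 cells measured after one day of compound exposure at 37 deg C, with a 12 min room-temperature detection step.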
Potency means the concentration at half of the fitted maximal effect; tags describe the fitted curve by direction and shape.

Chain of UniProt P43220 (P43220 whole entry, looked up): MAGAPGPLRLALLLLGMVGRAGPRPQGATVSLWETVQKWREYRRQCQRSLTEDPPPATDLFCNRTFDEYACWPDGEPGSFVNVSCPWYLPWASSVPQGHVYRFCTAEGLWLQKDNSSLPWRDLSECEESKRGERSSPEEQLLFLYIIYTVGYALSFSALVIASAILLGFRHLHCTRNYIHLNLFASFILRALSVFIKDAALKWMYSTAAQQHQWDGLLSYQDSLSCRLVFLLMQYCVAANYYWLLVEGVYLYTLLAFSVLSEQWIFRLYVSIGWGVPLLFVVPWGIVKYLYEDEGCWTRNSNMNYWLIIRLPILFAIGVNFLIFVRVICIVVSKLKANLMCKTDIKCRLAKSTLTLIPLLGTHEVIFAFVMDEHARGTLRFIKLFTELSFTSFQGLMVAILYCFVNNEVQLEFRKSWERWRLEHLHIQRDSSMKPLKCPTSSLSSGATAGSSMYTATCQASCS

Potency, inactive:
CC(C)(O)C(=O)N/N=C\c1ccc(OC/C=C/c2ccccc2)cc1, COc1ccc(CN(C(=O)Cn2nnc(-c3ccc(C)o3)n2)C(C(=O)NCC2CCCO2)c2ccco2)cc1 (configuration not stated), CCOC(=O)C1CCN(Cc2cnc(Oc3ccc(C(C)(C)C)cc3)s2)CC1, Cc1ccc(C)c(NC(=S)Nc2cccnc2)c1, O=C(Nc1c(C(=O)c2ccccc2)oc2ccccc12)c1ccc(F)cc1, CC(C)C[C@H](NC(=O)c1nc[nH]c1C(=O)NC1CCNCC1)C(=O)OCc1ccccc1, CCCOC1CCCN(C(=O)c2ccc(OC3CCN(C(=O)CCOC)CC3)cc2)C1 (configuration not stated), CC(C)(Oc1ccc(F)cc1)C(=O)OCC(=O)c1ccc(S(C)(=O)=O)cc1, Cc1nc2c(C(=O)N3CCOCC3)cnn2c(C)c1Cc1ccc(Cl)cc1, Cc1ccccc1CNC(=O)c1ccc(NC(=O)N2CCCCc3ccccc32)cc1, CCOC(=O)C1CCN(c2ncnc3c2cnn3-c2ccc(OC)cc2)CC1

Potency, inconclusive:
CCC(C)NC(=O)Nc1ccc(Br)cc1Cl (configuration not stated) 7.08 µM [inhibitor, partial curve, poor fit], COc1cccc(NC(=O)C(C)SCc2ccccc2)c1 (configuration not stated) 28.2 µM [inhibitor, single point], COc1ccc(OC)c(NC(=O)N2CC(C)Oc3ccc(C)cc32)c1 (configuration not stated) 28.2 µM [inhibitor, single point], O=C(Nc1nc(-c2ccc(Cl)cc2)cs1)C1CCCO1 (configuration not stated) 28.2 µM [inhibitor, single point], COc1ccc(C(=O)Nc2nc(-c3nnn(-c4ccc(F)cc4F)c3C)ns2)cc1 10 µM [inhibitor, partial curve, poor fit], COc1cccc(C2c3cc4c(cc3OC(N3CCCC3)C2C)OCO4)c1O (configuration not stated) 7.94 µM [inhibitor, partial curve, poor fit], CC(C)(C)CC(C)(C)NC(=O)c1ccc2snnc2c1 8.91 µM [inhibitor, partial curve, poor fit], C=CS(=O)(=O)N(Cc1ccccc1Br)[C@H](CO)Cc1ccccc1 7.94 µM [inhibitor, partial curve, poor fit], CCCCCCCCN1C(=O)[C@H](CC(=O)NCCCOCCCC)C[C@@]2(C(=O)OC)CCCCC=C12 12.6 µM [inhibitor, single point], COc1ccc(Cl)cc1NC(=O)C(C)Sc1nnc(C2CC2)n1C1CC1 (configuration not stated) 3.55 µM [inhibitor, full curve, poor fit], NS(=O)(=O)c1ccc(NNC(=O)c2cccs2)cc1 5.62 µM [inhibitor, full curve], CC(=O)ON1C(C)(C)CC(OC(=O)c2ccccc2)CC1(C)C 7.94 µM [inhibitor, partial curve, poor fit], CCNC(=O)C1(C)CCCN(Cc2ccc3ccccc3c2Br)C1 (configuration not stated) 12.6 µM [inhibitor, single point], CCc1cccc(NC(=O)CCc2c(C)nn(-c3ccc(N4CCCCC4)nn3)c2C)c1 14.1 µM [inhibitor, partial curve, poor fit], CCN(c1ccc(NC(=O)CN2C(=O)NC3(CCOc4ccccc43)C2=O)cc1)C(C)C (configuration not stated) 12.6 µM [inhibitor, single point], Cc1ccc2c(c1)=N/C(=N\c1[nH]c(O)c3ccccc13)N=2 12.6 µM [inhibitor, single point], CC(=O)c1cccc(NC(=O)C(C)OC(=O)Cc2c[nH]c3ccccc23)c1 (configuration not stated) 14.1 µM [inhibitor, single point], CCCc1nc2c(C)cc(Br)cn2c1Cc1ccc(C)cc1 3.98 µM [inhibitor, partial curve], Cc1ccc(S(=O)(=O)c2c(Nc3ccc(C)c(C)c3)sc(C(=O)c3ccc4c(c3)OCO4)c2N)cc1 6.31 µM [inhibitor, partial curve], CN(C)CCN(C(=O)C1=COCCO1)c1nc2ccc(Cl)cc2s1 14.1 µM [inhibitor, single point], COc1ccc(N=Cc2ccc(CNS(=O)(=O)c3ccc(Cl)cc3)o2)cc1 28.2 µM [inhibitor, single point], CCOc1ccc(S(=O)(=O)N2CCC(C(=O)Nc3ccc(C)c(S(=O)(=O)N4CCOCC4)c3)CC2)cc1 11.2 µM [inhibitor, single point], COc1ccc(OC)c(S(=O)(=O)N2CCc3ccccc32)c1 10 µM [inhibitor, single point], Cc1ccc(NC(=O)N(CCCN2CCOCC2)Cc2cccs2)cc1C 28.2 µM [inhibitor, single point], Cc1c(CN(C)C(=O)c2cc(-c3ccccc3)nc3ccc(Br)cc23)cnn1C 28.2 µM [inhibitor, single point], O=C(Cn1cc(C(F)(F)F)cc(Cl)c1=O)Nc1cccc(S(=O)(=O)N2CCCCC2)c1 10 µM [inhibitor, partial curve, poor fit], Cc1cccc(Nc2ccc(S(=O)(=O)N3CCOCC3)cc2[N+](=O)[O-])c1 28.2 µM [inhibitor, single point], Cc1ccc(NS(=O)(=O)c2ccccc2F)cc1S(=O)(=O)N1CCCCC1 10 µM [inhibitor, single point], CCOC(=O)c1c(NC(=O)C2CC(Cl)=CCC2C(=O)O)sc2c1CCCCC2 (configuration not stated) 11.2 µM [inhibitor, partial curve, poor fit]

Potency, active:
CCCCn1c(CNC(=O)C23CC4CC(CC(C4)C2)C3)nnc1SC(C)CC (configuration not stated) 3.55 µM, CCOc1ccc(/C=C/C(O)=C2/C(=O)N(C)C3(C)CC2c2ccccc2O3)cc1OC (configuration not stated) 3.16 µM
